Experimental data from US9789203B2, “cKIT antibody drug conjugates” (Novartis AG, priority 2013, dated 2017).

T1: mouse cKIT ECD (Mus musculus, UniProt P05532)
T1 construct: 3.125-50 nM of cKIT receptor extracellular domains (ECD) were diluted in a 2-fold series
T1 sequence (P05532 25-527 limits assumed): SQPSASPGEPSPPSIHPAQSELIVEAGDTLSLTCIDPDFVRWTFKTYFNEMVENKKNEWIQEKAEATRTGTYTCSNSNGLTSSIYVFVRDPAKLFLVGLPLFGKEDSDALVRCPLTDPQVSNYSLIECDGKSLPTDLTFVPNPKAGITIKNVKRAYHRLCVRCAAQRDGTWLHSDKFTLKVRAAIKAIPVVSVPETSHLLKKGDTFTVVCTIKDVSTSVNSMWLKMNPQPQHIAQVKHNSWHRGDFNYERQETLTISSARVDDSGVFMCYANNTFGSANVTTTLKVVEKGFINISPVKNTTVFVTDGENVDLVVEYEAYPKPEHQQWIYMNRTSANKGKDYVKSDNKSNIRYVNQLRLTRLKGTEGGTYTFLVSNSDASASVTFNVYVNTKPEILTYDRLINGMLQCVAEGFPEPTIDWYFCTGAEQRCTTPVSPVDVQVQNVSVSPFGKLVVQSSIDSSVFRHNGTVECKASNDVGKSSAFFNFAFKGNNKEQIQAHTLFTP

B1: 20376 (antibody)
heavy: QVQLVQSGAEVKKPGSSVKVSCKASGGTFSSYAISWVRQAPGQGLEWMGGIIPMSGRTTYAQKFQGRVTITADESTSTAYMELSSLRSEDTAVYYCARDYGPEAPDYGQSTSYFWYYAFDPWGQGTLVTVSSASTKGPSVFPLAPSSKSTSGGTAALGCLVKDYFPEPVTVSWNSGALTSGVHTFPAVLQSSGLYSLSSVVTVPSSSLGTQTYICNVNHKPSNTKVDKRV[human IgG1 Fc omitted here]
light: DIELTQPPSVSVSPGQTASITCSGDNIPSYFVHWYQQKPGQAPVLVIYDDNDRPSGIPERFSGSNSGNTATLTISGTQAEDEADYYCSSWDQDTVVFGGGTKLTVLGQPKAAPSVTLFPPSSEELQANKATLVCLISDFYPGAVTVAWKADSSPVKAGVETTTPSKQSNNKYAASSYLSLTPEQWKSHRSYSCQVTHEGSTVEKTVAPTECS
B2: NEG085 (antibody)
heavy: EVQLVESGGGLVQPGGSLRLSCAASGFAFSGYYMAWVRQAPGKGLEWVANINYPGSSTYYLDSVKGRFTISRDNAKNSLYLQMNSLRAEDTAVYYCARGDYYGTTYWYFDVWGQGTTVTVSSASTKGPSVFPLAPSSKSTSGGTAALGCLVKDYFPEPVTVSWNSGALTSGVHTFPAVLQSSGLYSLSSVVTVPSSSLGTQTYICNVNHKPSNTKVDKRV[human IgG1 Fc omitted here]
light: DIQMTQSPSSLSASVGDRVTITCRASQSISSYLNWYQQKPGKAPKLLIYYTSRLQSGVPSRFSGSGSGTDFTLTISSLQPEDFATYYCQQGRRLWSFGGGTKVEIKRTVAAPSVFIFPPSDEQLKSGTASVVCLLNNFYPREAKVQWKVDNALQSGNSQESVTEQDSKDSTYSLSSTLTLSKADYEKHKVYACEVTHQGLSSPVTKSFNRGEC
B3: NEG085-MCC-DM1 (conjugate)
heavy: B2 heavy
light: B2 light

Key:
mouse cKIT ECD = target: T1, mouse cKIT ECD; assay: SPR (Biacore 2000) affinity measurement; type: binding; details: 25° C., antibody captured, ECD in solution
Procedure: Affinity of the antibodies to cKIT species orthologues and also to cKIT was determined using SPR technology using a Biacore® 2000 instrument (GE Healthcare, Pittsburgh, Pa.) and with CM5 sensor chips.
Briefly, HBS-P (0.01 M HEPES, pH 7.4, 0.15 M NaCl, 0.005% Surfactant P20) supplemented with 2% Odyssey® blocking buffer (Li-Cor Biosciences, Lincoln, Nebr.) was used as the running buffer for all the experiments. The immobilization level and analyte interactions were measured by response unit (RU). Pilot experiments were performed to test and confirm the feasibility of the immobilization of the anti-human Fc antibody (Catalog number BR100839, GE Healthcare, Pittsburgh, Pa.) and the capture of the test antibodies.
For kinetic measurements, the experiments were performed in which the antibodies were captured to the sensor chip surface via the immobilized anti-human Fc antibody and the ability of the cKIT proteins to bind in free solution was determined Briefly, 25 μg/ml of anti-human Fc antibody at pH 5 was immobilized on a CM5 sensor chip through amine coupling at flow rate of 5 μl/minute on all two flow cells to reach 10,500 RUs. 0.1-1 μg/ml of test antibodies were then injected at 10 μl/min for 1 minute. Captured levels of the antibodies were generally kept below 200 RUs. Subsequently, 3.125-50 nM of cKIT receptor extracellular domains (ECD) were diluted in a 2-fold series and injected at a flow rate of 40 μl/min for 3 min over both reference and test flow cells. Table of tested ECDs is listed below. Dissociation of the binding was followed for 10 min. After each injection cycle, the chip surface was regenerated with 3 M MgCl2 at 10 μl/min for 30 s.

[1] = tested on: cKIT in wild type cell line Mo7e and mutant cell line GIST T-1; assay: Agonist evaluation, Western blot of cKIT phosphorylation and downstream signaling; type: cell-based, human; details: 5 μg/ml, 15 minutes, FIG. 12
Procedure: One well was designated as untreated (UT). Cells were harvested in 1 ml PBS. […] Lysates were then spun down for 40 mins at 12,000 rpm at 4° C. […] After protein transfer to membrane blots, membranes were blocked in TBST-5% milk at room temperature for 1 hour and then probed with primary antibodies overnight at 4° C. Blots were washed in TBST (4×5 mins) on the next day. Blots were incubated in the secondary antibody (goat-anti rabbit-HRP 1:30,000, Santa Cruz) for 1 hr at room temperature. Blots were washed in TBST (4×5 mins) and developed.

[2] = tested on: NCI-H1048 small cell lung cancer xenograft; assay: In vivo efficacy, NCI-H1048 small cell lung cancer xenograft; parameters: species or system mice
Procedure: All treated groups received a single intravenous dose of 2 mg/kg.

[3] = tested on: HAMLX5343 systemic primary AML xenograft; assay: In vivo efficacy, HAMLX5343 systemic primary AML xenograft
GIST T1 tumor xenograft = assay: In vivo pharmacodynamic marker modulation (pHH3, cleaved caspase 3 IHC); parameters: species or system mice; details: single i.v. dose 5 mg/kg
Source text: The goal of these studies was to evaluate the degree and duration of G2/M cell cycle arrest.
Presence of ADC was indirectly estimated by detecting human IgG antibody (which is NEG027 in the mouse) in the tumor using an immunohistochemical approach. […] The antibody reacts with whole molecule human IgG and the light chains of other human immunoglobulins with minimal cross-reaction to mouse serum proteins. Briefly, the IHC protocol included heat and standard exposure to Ventana Cell Conditioning #1 antigen retrieval reagent (Ventana, Tucson, Ariz.).
Accumulation of pHH3 positive nuclei, as assessed by immunohistochemistry, was used as a marker of G2/M arrest. […] Briefly, the IHC protocol included heat and standard exposure to Ventana Cell Conditioning #1 antigen retrieval reagent. The primary antibody was diluted to 1:50 and incubated for 60 minutes at room temperature.
Time dependent changes in cleaved caspase 3 were also evaluated. In these studies, a rabbit polyclonal antibody produced by immunizing animals with a synthetic peptide corresponding to amino-terminal residues adjacent to (Asp175) in human caspase-3 was obtained from EMD Millipore (Cat#PC679). […]
Accumulation of phospho-Histone H3 (pHH3) positive nuclei, as assessed by immunohistochemistry, was used as a marker of G2/M arrest. […]

[4] = Serum exposure by ELISA in NCI-H526 xenograft mice; details: NCI-H526 xenograft mice, 1.25, 2.5 and 5 mg/kg, FIG. 51
Source text: To assess PK parameters, serum was collected via retro-orbital bleeds and analyzed via ELISA. The total antibody PK assay measures total antibody concentration, with/without DM1 by colorimetric ELISA. Plates are coated with anti-human IgG (Fc specific), and detection is with anti-human IgG-HRP before being read on an appropriate plate-reader. The conjugate PK assay measures antibody that is bound to at least one (1) DM1 molecule by colorimetric ELISA. In this format, plates are coated with anti-maytansine antibody, and detected with anti-human IgG-HRP.

[5] = NCI-H1048, single i.v. dose 2 mg/kg
[6] = HAMLX5343, 10 mg/kg intravenously once every two weeks
[7] = HAMLX5343, Day 71, 10 mg/kg Every 2 weeks, intravenously

Row | Molecule | Affinity mouse cKIT (mouse cKIT ECD) | downstream signaling (phospho ERK, phospho AKT) [1] | phosphorylation of cKIT ([1]; absence of SCF) | antitumor activity (tumor volume) [2, 5] | ΔT/ΔC [2, 5] [%] | antitumor activity (tumor volume) ([2]; NCI-H1048, single i.v. dose 5 mg/kg) | antitumor activity (tumor volume) ([2]; NCI-H1048, single i.v. dose 10 mg/kg) | antitumor activity (leukemic burden) [3, 6] | tolerability [3, 6] | Mean change of tumor volume [3, 7] | Mean change of tumor volume vs control (T/C) [3, 7] [%] | Survival [3, 7] | percentage of cells positive for pHH3 (GIST T1 tumor xenograft) | time of peak pHH3 positivity post dose (GIST T1 tumor xenograft) | serum exposure of the total antibody and ADC [4]
1 | B1 | cross reacted with mouse | downstream signaling pathways are not affected | can mediate phosphorylation of cKIT in the absence of ligand (SCF) |  |  |  |  |  |  |  |  |  |  |  | 
2 | B2 | Not reactive |  |  |  |  |  |  |  |  |  |  |  |  |  | 
3 | B3 |  |  |  | not statistically different from the vehicle | 9 | significantly efficacious | significantly efficacious | delayed tumor progression | well tolerated | 37.4 ± 5.4 % CD45 positive PBMC's ± SEM | 48.3 | 6/6 | marked, time-dependent increase in the percentage of cells positive for pHH3 positivity | 1-2 days | dose dependent serum exposure
